Results as given in US20140348837A1 (published 2014).

Tests used:
Assay in all cases: SPR (Biacore)
BCMA-107 x CD3 = molecular target: BCMA-107 x CD3
BC 247-C3 x CD3 = molecular target: BC 247-C3 x CD3
BC 244-C6 x CD3 = molecular target: BC 244-C6 x CD3

B1: Macaque BCMA (receptor)
chain (part 1 of 2): [… about 60 residues …]NASGGGGSEAHKSEIAHRYNDLGEQHFKGLVLIAFSQYLQKCSYDEHAKLVQEVTDFAKTCVADESAANCDKSLHTLFGDKLCAIPNLRENYGELADCCTKQEPERNECFLQHKDDNPSLPPFERPEAEAMCTSFKENPTTFMGHYLHEVARRHPYFYAPELLYYAEQYNEILTQCCAEADKESCLTPKLDGVKEKALVSSVRQRMKCSSMQKFGERAFKAWAVARLSQTFPNADFAEITKLATDLTKVNKECCHGDLLECADDRAELAKYMCENQATISSKLQTCCDKPLLKKAHCLSEVEHDTMPADLPAIAADFVEDQEVCKNYAEAKDVFLGTFLYEYSRRHPDYSVSLLLRLAKKYEATLEKCCAEANPPACYGTVLAEFQPLVEEPKNLVKTNCDLYEKLGEYGFQNAILVRYTQKAPQVSTPTLVEAARNLGRVGTKCCTLPEDQRLPCVEDYLSAILNRVCLLHEKTPVSEHVTKCCSGSLVERRPCFSALTVDETYVPKEFKAETFTFHSDICTLPEKEKQIKKQTALAELVKHKPKATAEQLKTVMDDFAQFLDTCCKAADKDTCFSTEGPNLVTRCKDALA
chain (part 2 of 2): SGHHGGHHGGHH
Binder B1 has a Kd (BCMA-107 x CD3) of 11700 pM, a Kd (BC 247-C3 x CD3) of 600 pM and a Kd (BC 244-C6 x CD3) of 600 pM.
